Hit rate of the full screen: of about 260,000 compounds, about 890 (0.34%) were called active. Inconclusive means that the source gave no clear call. Such entries were picked first, then a sample of the others. Calls come from the whole dose curve; as a rule, active = well fitted activation curve with a large enough effect; inconclusive = small, poorly fitted or top-dose-only effect; inactive = no such curve, though single readings can be large or run the other way. No potency is given beside an inconclusive call; the fits are too rough.
Each compound was assayed against Pyruvate kinase PKM (Homo sapiens) (UniProt P14618) (assay: qHTS Assay for Activators of Human Muscle isoform 2 Pyruvate Kinase). Settings: purified PKM2, Kinase-Glo ATP luminescence; Potency: activation; activation: at 57.5 µM (top of the series), 0% is enzyme alone, no compound.
Procedure, shortened: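 Purified hPK-M2 (>95% pure) converted ADP (0.1 mM final) to ATP with 0.5 mM PEP in 50 mM imidazole pH7.2, KCl, MgCl2, Tween 20, BSA; 1 h at room temperature. ATP detected by Kinase-Glo luminescence.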
Note: nearly all actives have a fitted effect of over 55% in size.
Potency is the fitted concentration of half-maximal effect; tags give direction and shape of the fitted curve.

UniProt P14618, sequence (P14618 whole entry, looked up, canonical isoform): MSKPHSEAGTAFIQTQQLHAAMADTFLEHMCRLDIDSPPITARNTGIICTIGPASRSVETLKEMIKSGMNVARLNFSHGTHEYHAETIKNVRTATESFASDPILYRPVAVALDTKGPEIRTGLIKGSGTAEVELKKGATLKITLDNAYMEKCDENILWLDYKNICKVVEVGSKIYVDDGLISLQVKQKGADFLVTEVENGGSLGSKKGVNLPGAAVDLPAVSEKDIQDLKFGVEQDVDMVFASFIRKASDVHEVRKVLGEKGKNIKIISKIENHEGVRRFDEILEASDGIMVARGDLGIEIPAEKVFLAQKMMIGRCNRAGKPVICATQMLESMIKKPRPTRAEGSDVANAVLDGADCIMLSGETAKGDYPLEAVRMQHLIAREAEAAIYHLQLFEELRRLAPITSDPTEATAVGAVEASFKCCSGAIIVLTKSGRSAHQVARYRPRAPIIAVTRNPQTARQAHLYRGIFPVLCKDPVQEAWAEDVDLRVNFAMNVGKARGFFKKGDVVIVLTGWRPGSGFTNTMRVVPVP

| Structure (SMILES) | Potency |
| --- | --- |
| O=C(c1ccc(Cn2cc(Cl)cn2)o1)N1CCN(Cc2ccc3c(c2)OCO3)CC1 | inconclusive [rising, single point] |
| O=C(COC(=O)Cn1cnc2ccccc21)Nc1cccc([N+](=O)[O-])c1 | inactive |
| CC(C)C(NC(=O)c1ccc(C(C)(C)C)cc1)C(=O)Nc1cccc(S(N)(=O)=O)c1 (stereo not drawn) | inconclusive [rising, single point] |
| CCN(CC)c1ccc(/C=N/N2CCN(Cc3ccc(C)cc3)CC2)c(O)c1 | inconclusive [rising, single point] |
| COc1ccc(NS(=O)(=O)c2ccc(Cl)c(N)c2)cc1Br | inconclusive [rising, single point] |
| COC(=O)c1ccc(C)c(NC(=O)c2nn(C)c(=O)c3ccccc23)c1 | inactive |
| Cc1ccc(S(=O)(=O)NCCNc2ccc([N+](=O)[O-])cc2C(F)(F)F)cc1 | inconclusive [rising, single point] |
| Cc1cc(NC(=O)CSc2nnc3c4c(C)c(C)sc4ncn23)no1 | inconclusive [rising, full curve] |
| COc1ccc(-c2nc3ccccn3c2NCc2ccc3c(c2)OCO3)cc1 | inactive |
| COc1ccc(CS(=O)/C(Cl)=C(/Cl)C(=O)Nc2ccc(OC)nc2)cc1 (stereo not drawn) | inconclusive [rising, partial curve] |
| O=S(=O)(c1cccc2nsnc12)N1CCc2ccccc21 | inconclusive [rising, single point] |
| CCOc1cccc(C(=O)Nc2cccc(C(C)=O)c2)c1 | inactive |
| COc1cccc(NC(=O)COC(=O)C2CCN(S(=O)(=O)c3cccs3)CC2)c1 | inconclusive [rising, single point] |
| O=C(Sc1cccc2cccnc12)c1ccccc1Br | inconclusive [rising, partial curve] |
| N=C1/C(=C\c2ccc(-c3ccc(C(=O)O)cc3)o2)C(=O)N=C2SC=C(c3ccccc3)N12 | inconclusive [rising, single point] |
| CC(=O)CC1(OC(C)=O)C(=O)N(C)c2ccccc21 (stereo not drawn) | inconclusive [rising, partial curve] |
| Cc1nc2cc(NS(=O)(=O)c3cccc4cccnc34)ccc2s1 | inconclusive [rising, single point] |
| CCc1nc(SCC(=O)c2cc(C)ccc2C)n[nH]1 | inactive |
| COc1ccc(N=C2SCC(=O)N2Cc2ccccc2)cc1 | inactive |
| Cc1ccc(Sc2ccc(NC(=O)CCl)cc2)c(C)c1 | inconclusive [rising, single point] |
| O=C(NCC1CCN(C(=O)c2c(F)c(F)c(F)c(F)c2F)CC1)c1c(F)c(F)c(F)c(F)c1F | inactive |
| CCOC(=O)CC(=O)Nc1ccn[nH]1 | inconclusive [rising, single point] |
| COCCNc1nnc(SC(C)C(=O)Nc2ccc(-c3nc4ccc(C)cc4s3)cc2)s1 (stereo not drawn) | inactive |
| CC(NC(=O)COC(=O)c1ccc(N(C)C)cc1)c1ccccc1 (stereo not drawn) | inconclusive [rising, single point] |
| Cc1ccc(S(=O)(=O)/N=c2\ccc(Cl)cn2C(F)F)cc1 | active: 25.1 µM |

| Structure (SMILES) | Potency |
| --- | --- |
| COc1ccc(CN2CCN(C(=O)CC(C)C)CC2)cc1 | inconclusive [rising, single point] |
| CCCN(CCC)C(=S)NC(=O)c1ccc(Cl)cc1Cl | inactive |
| COc1cc(/C=C2\C(=O)N(CCC#N)N=C2C)ccc1OCC(=O)Nc1ccccc1 | inconclusive [rising, partial curve] |
| CC(/C=N/NC(=O)CSc1nc(C)cc(C)n1)=C\c1ccccc1 | inactive |
| Cc1c(C(=O)N/N=C/c2ccc(O)c(Br)c2)sc(N)c1C#N | inactive |
| COc1ccc(CCNC(=O)CCSc2nc(-c3ccco3)cc(C(F)(F)F)n2)cc1OC | inconclusive [rising, single point] |
| CCC(C)(C)n1nnnc1C(c1cc2cc(C)cc(C)c2[nH]c1=O)N1CCN(C(=O)c2ccco2)CC1 (stereo not drawn) | active: 14.1 µM |
| CCOC(=O)c1ccc(NCCOC)c([N+](=O)[O-])c1 | inactive |
| O=C(Nc1cccc(S(=O)(=O)N2CCCCC2)c1)c1ccc2c(=O)n3c(nc2c1)CCCCC3 | inactive |
| CN(C)S(=O)(=O)c1ccc(NCC2COc3ccccc3O2)c([N+](=O)[O-])c1 (stereo not drawn) | inconclusive [rising, partial curve] |
| CC(=O)SCC(=O)N=c1sc2cc(F)ccc2n1C | inconclusive [rising, partial curve] |
| O=c1cc(CN2CCN(c3ccc(O)cc3)CC2)nc2scc(-c3ccccc3)n12 | inconclusive [rising, single point] |
| CN(CCC1CCOCC1)C(=O)C1CCC(=O)N(CCc2ccccc2)C1 (stereo not drawn) | inactive |
| S=c1nc(C23CC4CC(CC(C4)C2)C3)nc2sccn12 | inconclusive [rising, single point] |
| CCN(CC)c1ccc2nc3ccccc3[n+](CC)c2c1 | inactive |
| COc1cc(NC(=O)c2[nH]c(C)c(C(C)=O)c2C)cc(OC)c1OC | inconclusive [rising, partial curve] |
| CCN(CC)S(=O)(=O)c1ccc(N2CCCCC2)c(NC(=O)/C(C#N)=C/c2ccc(OC)cc2)c1 | inactive |
| Cc1ccc(OCCN2C(=O)S/C(=C\c3ccc(C)o3)C2=O)cc1 | inconclusive [rising, single point] |
| COC(=O)Nc1ccc(S(=O)(=O)NCCCCCC(=O)O)cc1 | inconclusive [rising, single point] |
| Cc1c(C(=O)OCC[N+]2(C)CCCCC2)oc2ccccc12 | inconclusive [rising, single point] |
| Cc1cc(C)cc(NS(=O)(=O)c2ccc3oc(=O)ccc3c2)c1 | inconclusive [rising, full curve] |
| CC(=O)c1c(C)[nH]c(C(=O)Nc2ccc(Cl)c(S(=O)(=O)N(C)C)c2)c1C | inconclusive [rising, single point] |
| CCC(C)NC(=O)C1CCN(c2nc(C)cc(C)n2)CC1 (stereo not drawn) | inactive |
| COc1ccc(OCC(=O)N2CCN(S(=O)(=O)c3ccc(Cl)cc3)CC2)cc1 | inconclusive [rising, partial curve] |
| CC(=O)NC(c1ccccc1)c1cc([N+](=O)[O-])c2cccnc2c1O (stereo not drawn) | inconclusive [rising, partial curve] |

| Structure (SMILES) | Potency |
| --- | --- |
| COc1ccc(C(=O)/C=C/c2ccccc2F)c(OC(=O)c2ccc([N+](=O)[O-])cc2)c1 | inactive |
| CCc1ccc(Nc2n[n+](-c3ccccc3)c(-c3c(Cl)cccc3Cl)s2)cc1 | inactive |
| Nc1ccc(N)c(C(=O)O)c1 | inconclusive [rising, partial curve] |
| CCOc1ccc2nc(S(N)(=O)=O)sc2c1 | inconclusive [rising, single point] |
| COC(=O)[C@@]1(Cc2ccc(OC)cc2)[C@H]2c3cc(C(=O)N4CCCC4)n(Cc4ccc(C)o4)c3C[C@H]2CN1C(=O)c1ccccc1 | inconclusive [rising, partial curve] |
| CCOC(=O)c1sc2nc(CC(=O)OC)nc(NCc3ccco3)c2c1C | inconclusive [rising, partial curve] |
| NS(=O)(=O)c1ccc(N/C=C\C(=O)c2cccc3ccccc23)cc1 | inconclusive [rising, single point] |
| Cc1ccc(Cn2c(SCC(=O)N/N=C/c3ccccc3OCC(=O)O)nc3ccccc32)cc1 | inconclusive [rising, single point] |
| Cn1c(Cc2ccccc2)nnc1SCC(=O)Nc1ccccc1 | inconclusive [rising, single point] |
| Cc1ccc(NC(=O)CSc2nc3ccccc3nc2N2CCCC2)cc1 | inconclusive [rising, single point] |
| CCCCNc1nnc(SCC(=O)N2CCN(S(=O)(=O)c3ccc4ccccc4c3)CC2)s1 | inconclusive [rising, partial curve] |
| COCCCNC(=S)Nc1cc(C)c(C)cc1C | inactive |
| O=C(CSc1nc2ccc(Cl)cc2[nH]1)N1CCN(C(=O)c2ccco2)CC1 | inconclusive [rising, single point] |
| Fc1ccc(CNC(=S)NC2CCCCC2)cc1 | inactive |
| CN1C(=O)c2cccc3c(S(=O)(=O)Nc4ccccc4F)ccc1c23 | active: 11.2 µM |
| Cn1c(N)c(C(=O)CCl)c(=O)n(Cc2ccccc2)c1=O | inconclusive [rising, single point] |
| COc1cc(/C=C2\SC(=Nc3ccccc3)N(CCc3c[nH]c4ccccc34)C2=O)ccc1OC(C)C(=O)O (stereo not drawn) | inactive |
| O=C(Nc1ccc2[nH]c(=O)[nH]c2c1)c1cccc([N+](=O)[O-])c1 | inconclusive [rising, single point] |
| CC1CCC(C(C)C)C(OC(=O)Cn2c(-c3ccccc3)[n+](C)c3ccccc32)C1 (stereo not drawn) | inactive |
| Cc1ccc(-c2nn(-c3ccccc3)cc2C=O)o1 | inconclusive [rising, partial curve] |
| CCOC(=O)Cn1c(=O)oc2cc(S(=O)(=O)Nc3ccc(F)cc3)ccc21 | inconclusive [rising, single point] |
| Nc1nc(-c2ccccc2)cn1N | active: 28.2 µM |
| CCn1c(=O)c(C(=O)NCc2ccccn2)c(O)c2ccccc21 | inconclusive [rising, partial curve] |
